Experimental data reported in the RNAGym collection of RNA variant scans (doi:10.1093/nar/gkz1192).
The source gives no read counts; variants with many changes may rest on few reads.

B1: CPEB3 Ribozyme (parent)
chain: UAACAGGGGGCCACAGCAGAAGCGUUCACGUCGCAGCCCCUGUCAGAUUCUGGUGAAUCUGCGAAUUCUGCUGUAUAUCUC

Variants of: B1
Assay: self-cleavage, relative activity (ratio to wild type); higher = more cleavage; in vitro, sequencing
Outline: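 CPEB3 self-cleaving ribozyme mutant libraries were made by rounds of error-prone PCR, barcoded, and transcribed in vitro with T7 RNA polymerase for 5 hours at 37°C. Cleavage occurred during transcription and a 15 min DNase I step before EDTA stop. RNAs were reverse transcribed with template switching and Illumina-sequenced, with DNA sequencing mapping barcodes to variants. Relative activity is the variant's cleaved/total read fraction divided by wild type's (minimum 5 reads), averaged across three batches.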
For UAACAGGAGGCCACAGCGGAAGCGUUCACGACGCAGCCCCUGUCAGAUUCCGGUGAAUCUGCGAAUCCUGCCGUAUAUCUC [G8A A18G U31A U51C U67C U72C], the self-cleavage was 0.05. With UAACAGGAGGCCACAGCAGGAGCGUUCACGUCGCGGCCCCUGUCGGAUUCUGGUGAAUCUGCUGAUUCUGCUGUACAUCUC [G8A A20G A35G A45G G63U A64G U76C] the self-cleavage was 0.09. Work on UAACAGGAGGCCACAGCAGGAGCGUUCACGUCGCGGCCCCUGUCAGAUUCUGGUGAACCUGCGCAUACUGCUGUAUAUCAC [G8A A20G A35G U58C A64C U67A U80A] yielded a self-cleavage of 0.06. In the case of UAACAGGAGGCCACAGCAGGAGCGUUCACGUCGCAGCCCCUGUCUGAUUCUGGUGAAUCUGCGAGUUCUGCUGUAUAUCUC [G8A A20G A45U A65G], the self-cleavage is reported as 0.05. Work on UAACAGGAGGCCACAGCAGGAGCGCUCACGUCGCAGCCCCUGUCAGAUUCUGGUGAAUCUGCGAAUUCUGCUGCAUAUCUC [G8A A20G U25C U74C] yielded a self-cleavage of 0.46. Work on UAACAGGAGGCCACAGCAGUAGCGUUCACGUCCCAGCCCCUGUCAGAUUCUGGUGAAUCUGCGAAUUCUGCCGUAUAUCUC [G8A A20U G33C U72C] yielded a self-cleavage of 0.05. For UAACAGGAGGCCACAGCAGUAGCGUUCACGUCGCAGCCCCUUUCAGAUUCUGGUGAAUCCGCGAAUACUGCUGUAUAUCUC [G8A A20U G42U U60C U67A], the self-cleavage was 0.05. UAACAGGAGGCCACAGCAGUAGCGUUCACGUCGCAGCCCCCGUCAGAUUCUUGUGAAUCUGCGAAUUCUGCUGUAUAUCUC [G8A A20U U41C G52U] gave a self-cleavage of 0.06. UAACAGGAGGCCACAGCAGUAGCGUUCACGUCGCAGCCCCUGUCAGACUCAGGUGAAUCUGCGAAUUCUGCUGUAUAUCUC [G8A A20U U48C U51A] showed a self-cleavage of 0.16. For UAACAGGAGGCCACAGCAGAGGCGUUCACGUCGCAGCCCCUGUCAGAUUCUGGUGGGUCUGCGAAUUCUGCCGUAUAUCUC [G8A A21G A56G A57G U72C], the self-cleavage was 0.05. With UAACAGGAGGCCACAGCAGAGGUGUUCACGUCGCAGCCCCCGUCAGAUUCUGGUGAAUCUGCGAUUUCAGCUAUAUAUCUC [G8A A21G C23U U41C A65U U69A G73A] the self-cleavage was 0.08. Variant UAACAGGAGGCCACAGCAGAGGCGUUCACGUCGCAGCCCCUGCCAGAUUCUGGUGAAUCUGCGAAUCCUGCUGUAUAUCCC [G8A A21G U43C U67C U80C] has a self-cleavage of 0.13. Variant UAACAGGAGGCCACAGCAGAGGCGUUCACGUCGCAGCCCCUGUCAGAUUCCGGUGAAUCCGCGAAUUCUGCUGUAUAUCUC [G8A A21G U51C U60C] has a self-cleavage of 0.14. Variant UAACAGGAGGCCACAGCAGAAGCGUUCGCGUCGCGGCCCCUGUCAGAUUCUGGUGAAUCUGCGAAUUCUGCUGUAUAUUUC [G8A A28G A35G C79U] has a self-cleavage of 0.11. Variant UAACAGGAGGCCACAGCAGAAGCGUUCGCGUCGCGGCCCCUGUCAUAUUCUGGUGAACCUGCGAAUUCUGCUGUAUAUCUC [G8A A28G A35G G46U U58C] has a self-cleavage of 0.06. With UAACAGGAGGCCACAGCAGAAGCGUUCGCGUCGCAGCCCCUGUCAGAUUCUGGUGAGUCUGCGAAUUCUGCCGUAUAUCUC [G8A A28G A57G U72C] the self-cleavage was 0.05. With UAACAGGAGGCCACAGCAGAAGCGUUCGCGUCGCAGAGCCUGUCAGAUUCUGGUGAAUCUGCGAAUUCUGCUGUAUAUCUC [G8A A28G C37A C38G] the self-cleavage was 0.23. With UAACAGGAGGCCACAGCAGAAGCGUUCGCGUCUCAGCCCCUGUCGGAUUCUGGUGAAUCAGCGAAUUCUGCUGUAUAUCUC [G8A A28G G33U A45G U60A] the self-cleavage was 0.05. UAACAGGAGGCCACAGCAGAAGCGUUCGCGCCGCAGCCCCUGUCAGAUUCUGGUGAAUCUGCGAAUUCUGCUGUAUAUCUC [G8A A28G U31C] gave a self-cleavage of 0.17. Work on UAACAGGAGGCCACAGCAGAAGCGUUCGCGUCGCAGCCCCUGCCAGAUUCUGGUGAUUCUGCGAAUUCUGCUGUAUAUCGC [G8A A28G U43C A57U U80G] yielded a self-cleavage of 0.04. For UAACAGGAGGCCACAGCAGAAGCGUUCGCGUCGCAGCCCCUGUCAGAUUCUGGUGAAUCUGCGAAUUCUGCUGUAUAUCCC [G8A A28G U80C], the self-cleavage was 0.21. UAACAGGAGGCCACAGCAGAAGCGUUCUCGUCGCUGCUCCUGUCAGAUUCUGGUGAAUCUGCGAAUCCUGCUGUAUUUCUC [G8A A28U A35U C38U U67C A77U] showed a self-cleavage of 0.12. Work on UAACAGGAGGCCACAGCAGAAGCGUUCUCGUCGCAGCCCCUGUCAGAUUCUGGUGGAUCUGCGAAUUCAGCUGUAUAUCUC [G8A A28U A56G U69A] yielded a self-cleavage of 0.05. In the case of UAACAGGAGGCCACAGCAGAAGCGUUCUCGUCGCAGCCCCUGUCAGAUUCUGGCGAAUCUGCGAAUUCUGCCGUAUAUCUC [G8A A28U U54C U72C], the self-cleavage is reported as 0.06. Variant UAACAGGAGGCCACAGCAGAAGCGUUCUCGUCGCAGCCCCUGUCAGAUUCUGGUGAAUCCGCGAAUUCUGCUGUAUAUCUC [G8A A28U U60C] has a self-cleavage of 0.06. Work on UAACAGGAGGCCACAGCAGAAGCGUUCACGUCGCGGCCCCUGCCAGAUUCUGGUGAAUAUGCGAAUUCCGCUGUAUAUCUC [G8A A35G U43C C59A U69C] yielded a self-cleavage of 0.06. Work on UAACAGGAGGCCACAGCAGAAGCGUUCACGUCGCUGCCCCUGUCAGAUUCUGGUGAAUCUGCGUAUUUAGCAGUAUAUCUC [G8A A35U A64U C68U U69A U72A] yielded a self-cleavage of 0.04. With UAACAGGAGGCCACAGCAGAAGCGUUCACGUCGCUGCACCUGUCGGAUUCUGGUGAACCUGCGAAUUCUGCAGUAUAUCCC [G8A A35U C38A A45G U58C U72A U80C] the self-cleavage was 0.03. Work on UAACAGGAGGCCACAGCAGAAGCGUUCACGUCGCUGCCCCUGUCAGAUUCUGGCGAAUCUGCGAAUUCUGCUGUAUAUCUC [G8A A35U U54C] yielded a self-cleavage of 0.17. Variant UAACAGGAGGCCACAGCAGAAGCGUUCACGUCGCAGCCCCUGUCGGAUUCUGGAGAAUCUGCGAGUUCUGCUGUAUAUCUC [G8A A45G U54A A65G] has a self-cleavage of 0.24. In the case of UAACAGGAGGCCACAGCAGAAGCGUUCACGUCGCAGCCCCUGUCGGAUUCUGGUGAAUCUGCGAACUCUGCUGUAUAUCUC [G8A A45G U66C], the self-cleavage is reported as 0.21. Work on UAACAGGAGGCCACAGCAGAAGCGUUCACGUCGCAGCCCCUGUCGGAUUCUGGUGAAUCUGCGAAUUCCGCUGUAUAUCUC [G8A A45G U69C] yielded a self-cleavage of 0.2. Variant UAACAGGAGGCCACAGCAGAAGCGUUCACGUCGCAGCCCCUGUCUGAUUCUGGCGAAUCUGCGAAUUCUGCUGCAUAUCUC [G8A A45U U54C U74C] has a self-cleavage of 0.22. For UAACAGGAGGCCACAGCAGAAGCGUUCACGUCGCAGCCCCUGUCAGUUUCCGGUGAACCCGCGAAUUCUGCCGUAUAUCUC [G8A A47U U51C U58C U60C U72C], the self-cleavage was 0.09.
